Target: T1, recombinant APOL1 G0 protein (His-tag fused, reference allele) (human, UniProt O14791-1 28-398)
T1 sequence (looked up): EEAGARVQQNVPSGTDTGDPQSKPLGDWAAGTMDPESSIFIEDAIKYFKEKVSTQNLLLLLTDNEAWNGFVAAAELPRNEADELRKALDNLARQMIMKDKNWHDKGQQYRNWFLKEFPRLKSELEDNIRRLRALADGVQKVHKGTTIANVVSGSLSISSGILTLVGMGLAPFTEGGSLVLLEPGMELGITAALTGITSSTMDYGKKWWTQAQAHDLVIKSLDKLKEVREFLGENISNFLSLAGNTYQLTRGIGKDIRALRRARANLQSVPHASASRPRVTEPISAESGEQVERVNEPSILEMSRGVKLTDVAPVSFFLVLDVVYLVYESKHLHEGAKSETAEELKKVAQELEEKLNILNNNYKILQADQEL
Assay: SPR

B1: human suPAR (soluble urokinase plasminogen activator receptor), recombinant (receptor)
chain: not shown
Q: For B1, which “KD for suPAR in the presence of αvβ3 integrin (5 nM) with Mn2+” value is on record?
A: Its value is 665 nM.

Source: article PMC6019326 (Nature medicine, 2017)
